# Test results as given in PubChem BioAssay AID445 (National Center for Advancing Translational Sciences (NCATS), 2006).
# Screen size: about 110,000 compounds; about 40 (0.04%) were called active. The shares of active, inactive and inconclusive entries below differ from those in the screen. The call rests on the fitted dose curve; in most records, active means well fitted curve in the direction sought with a large enough effect in the signal ratio (not every such curve was filed as active); inconclusive means small, poorly fitted or top-dose-only effect, or a change in a side signal; inactive means flat fitted curve, though single readings scatter; the % refers to the signal ratio. Where the call is inconclusive, the potency comes from a doubtful curve fit.
# Assay: IkB Signaling;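 on IkBa stabilization activation: 0% = basal untreated cells and 100% = reference inhibitor full response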
# Conditions: ABC-DLBCL IkBa-CBG/CBR dual luciferase ratio (green luciferase fused to IkBa over red control in OCI-Ly3 lymphoma cells), 4 h; IkBa stabilization activation: at 57.1 µM (top of the series), scaled: untreated 0%, proteasome inhibitor 100% unless noted
# Summary of the method: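 In this assay, an IκBα–CBG68 fusion accumulates when IKK-driven degradation is blocked; native CBR normalizes for cell number. OCI-Ly3 cells were treated 4 h with compound and doxycycline, then green and red light read after Chroma-Glo addition.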
# Potency means the concentration at half of the fitted maximal effect.
SMILES,IkBa stabilization activation,Potency
c1ccc(-c2cc3c(ccc4nonc43)nn2)cc1,inactive,–
COc1ccccc1CNC(=O)C1CCN(C(=O)c2sccc2-n2cccc2)CC1,inconclusive: 3.67% [signal inhibitor],–
COc1ccccc1CNC(=O)c1cc2c(-c3ccc(Cl)cc3)nn(C)c2s1,inconclusive: 1.26% [signal inhibitor],–
COCCOC(=O)c1c(C)oc2ccc(OCc3cc(C(=O)OC)oc3C)cc12,inconclusive: 3.83% [signal inhibitor],–
O=C(CN(c1ccc(Cl)c(C(F)(F)F)c1)S(=O)(=O)c1ccccc1)Nc1cccnc1,inconclusive: 0.671% [signal inhibitor],–
CCc1ccccc1NC(=O)CSc1nnc(-c2ccccc2)c(-c2ccccc2)n1,inconclusive: 2.26% [signal inhibitor],–
CCC1Oc2nc(SC)nnc2-c2ccccc2N1C(=O)c1ccccc1 (stereo unspecified),inconclusive: 10.2% [signal inhibitor],–
COc1cc(OC)cc(-c2cc3nc(C)c(CCC(=O)Nc4ccccc4OC)c(C)n3n2)c1,inconclusive: 13.9% [signal inhibitor],–
Nc1nnc(N2CCCCC2)s1,inactive,–
CCc1ccc2[nH]c(=O)c(CN(Cc3ccc(OC)cc3)Cc3nnnn3CCOC)cc2c1,inconclusive: 8.36% [signal inhibitor],–
Cc1ccc(C(C)C)c(OCCn2c(=O)oc3ccccc32)c1,inconclusive: 3.18% [signal inhibitor],–
COCCNC(=O)Cn1c(=O)c2cccn2c2ccc(F)cc21,inconclusive: -0.772% [signal inhibitor],–
CCc1nc(C)c(C#N)c2cc(OC)c(OC)cc12,inactive,–
CN(Cc1ccccc1)S(=O)(=O)c1ccc2c(c1)n(C)c(=O)n2C,inconclusive: 2.21% [signal inhibitor],–
Cc1cc(C)cc(Oc2nc3ccccn3c(=O)c2/C=C(\C#N)c2nc3ccccc3s2)c1,–,"inconclusive: 5.01 µM [signal inhibitor, single point]"
Cn1c(=O)cc(SCC(=O)N2CCN(c3ccccc3F)CC2)c2ccc(Cl)cc21,inconclusive: 0.807% [signal inhibitor],–
Cc1ccccc1OCCSc1nc2ccc(NC(=O)c3cccs3)cc2s1,inconclusive: 4.3% [signal inhibitor],–
CCn1nc(-c2ccccc2)c(-c2ccccc2)c(C(=O)Nc2ccc(NC(C)=O)cc2)c1=O,inconclusive: 2.26% [signal inhibitor],–
Cc1ccc(Cn2ccnc2SCC(=O)Nc2nnc(C)s2)cc1,inactive,–
Cc1ccc(-c2csc(=Nc3ccccc3)n2Cc2ccc3c(c2)OCO3)cc1,inconclusive: 0.556% [signal inhibitor],–
CCOC(=O)C1CCCN(C(=O)Cn2ncc3c4ccccc4n(Cc4ccccc4)c3c2=O)C1 (stereo unspecified),inconclusive: 1.29% [signal inhibitor],–
COc1ccccc1NC(=O)c1cc2c(C)nn(-c3ccccc3)c2s1,inconclusive: 3.45% [signal inhibitor],–
Cc1ccc(NC(=O)c2nc(S(C)(=O)=O)ncc2N(Cc2ccco2)Cc2cccs2)cc1C,inconclusive: 3.75% [signal inhibitor],–
COc1ccc(CNc2nc3nc(C)c(Cl)c(C)n3n2)cc1OC,inactive,–

SMILES,IkBa stabilization activation,Potency
COc1ccc(C(=O)OCCN2C(=O)c3ccccc3C2=O)cc1OC,inactive,–
Cc1cccc(NC(=O)CCNS(=O)(=O)c2ccc3c(c2)CCN3C(=O)C2CC2)c1,inconclusive: 7.41% [signal inhibitor],–
Cc1ccc(NC(=O)Cn2cc(C(=O)C3CCCCC3)c3ccccc32)cc1,inconclusive: 6.05% [signal inhibitor],–
CCOc1ccc(-c2cc(CCCC(=O)NCCc3cc(OC)c(OC)c(OC)c3)no2)cc1,–,inconclusive: 3.16 µM [signal inhibitor]
CCOc1ccc(NC(=O)Cn2c(=O)n(CCCS(=O)(=O)C3CCCCC3)c(=O)c3ccccc32)cc1,inconclusive: 2.8% [signal inhibitor],–
Nc1ccc(O)c([N+](=O)[O-])c1,inactive,–
COC(=O)c1c(C)oc2ccc(N(C(=O)c3ccncc3)S(=O)(=O)c3cc(C)ccc3C)cc12,inconclusive: 6.82% [signal inhibitor],–
Cc1ccc(C(=O)Nc2ccccc2)cc1S(=O)(=O)Nc1ccccc1,inconclusive: 4.96% [signal inhibitor],–
N#Cc1ccc(CN2CCCC3(CCN(S(=O)(=O)c4ccccc4)CC3)C2)cc1,"inactive: 2.71% [at 11.4 µM, scaled: untreated 0%, proteasome inhibitor 100%]",–
Cc1ccc2c(c1)c1c(n2CC(O)Cn2nc(C)c(Br)c2C)C(=O)CCC1 (stereo unspecified),inactive,–
Cc1cnc(C(=O)Nc2ccc3c(c2)CCC3)cn1,inactive,–
O=S(=O)(/N=S1/CC=CCN1S(=O)(=O)c1ccccc1)c1ccccc1 (stereo unspecified),inconclusive: 9.71% [signal activator],–
Cc1ccc(OC(=O)CSc2nnc(-c3ccc4c(c3)OCO4)o2)cc1,inactive,–
Cc1ccc(-n2ncc3c(N4CCC(Cc5ccccc5)CC4)ncnc32)cc1C,inconclusive: -0.495% [signal inhibitor],–
COc1ccc(N2CCN(C(=O)C3CCN(S(=O)(=O)c4cn(C)cn4)CC3)CC2)cc1,inactive,–
COCCCn1c(-c2ccc(S(=O)(=O)N3CCOCC3)cc2)csc1=Nc1ccccc1,inconclusive: 16.4% [signal inhibitor],–
COc1ccc(-c2nc3cnc(N4CCN(C)CC4)nc3n(Cc3cccs3)c2=O)cc1,"inactive: -2.3% [at 11.4 µM, scaled: untreated 0%, proteasome inhibitor 100%]",–
CCNC(=O)c1cc2c(=O)n3cccc(C)c3nc2n(Cc2ccc(C)cc2)c1=N,inactive,–
O=C(NCCN1CCCCC1)c1ccc(Cn2c(SCc3ccccc3)nc3cccnc32)cc1,inconclusive: 9.62% [signal inhibitor],–
COc1ccc(CNC(=O)c2cc3sccc3n2Cc2ccc(C)cc2)cc1,inconclusive: 2.96% [signal inhibitor],–
Nc1nnnn1/N=C/C(Br)=C/c1ccccc1,–,"inconclusive: 3.16 µM [rising, full curve]"
O=C(c1ccc(Cl)cc1)N1CCCCC(Sc2nnc(-c3ccc4c(c3)OCO4)o2)C1=O (stereo unspecified),inactive,–
Cc1ccc(NC(=O)C2CCN(c3nc(-c4ccc(C(C)C)cc4)no3)CC2)c(Cl)c1,inconclusive: 5.1% [signal inhibitor],–
Cc1ccc(C(=O)NC2(C(F)(F)F)N=C(c3ccccc3)N(Cc3ccccc3)C2=O)cc1 (stereo unspecified),inactive,–

SMILES,IkBa stabilization activation,Potency
Cc1nn(Cc2ccc(Cl)cc2Cl)c(C)c1NC(=O)c1nc2n(n1)C(C(F)F)CC(C)N2 (stereo unspecified),inconclusive: 1.27% [signal inhibitor],–
Cc1ccc2c(CNCc3ccc(C)o3)c(C(=O)O)n(Cc3ccc(F)cc3)c2c1,inconclusive: -1.64% [signal inhibitor],–
O=C(c1ccc2c(c1)N(Cc1ccc(Cl)cc1)C(=O)c1ccccc1S2=O)N1CCCCC1 (stereo unspecified),inconclusive: 4.22% [signal inhibitor],–
O=C(CSc1ccccc1)N1CCc2c([nH]c3ccccc23)C1c1ccc(Cl)cc1 (stereo unspecified),inconclusive: -0.736% [signal inhibitor],–
COc1ccc(NC(=O)Cn2nc3c(cc2=O)CCCC3)cc1Cl,inactive,–
CC1=C(c2ccc(F)cc2)S(=O)(=O)N=C1N1CCC(C(=O)NCCc2ccccc2)CC1,inactive,–
O=C(NCc1ccc(Cl)cc1)c1cc2ccc3cccnc3c2[nH]1,inconclusive: 5.36% [signal inhibitor],–
CC(C)c1ccc(Cc2cn3cc(-c4cc5ccccc5oc4=O)nc3s2)cc1,–,inconclusive: 6.31 µM [signal activator]
COc1cc(CN(C(=O)COc2ccc(Cl)cc2)c2ccccn2)cc(OC)c1OC,inactive,–
COc1ccc(OC)c(C2=NS(=O)(=O)N(C)C(C(=O)Nc3ccc(C(C)=O)cc3)=C2)c1,inconclusive: 4.41% [signal inhibitor],–
Cc1cccc(C)c1NC(=O)NCCCN1CCN(c2ccccc2)CC1,inconclusive: 9.5% [signal inhibitor],–
CNC(=O)C1CCC(Cn2c(=O)c3sccc3n(CC(=O)NCc3ccc(C)cc3)c2=O)CC1 (stereo unspecified),inconclusive: -0.999% [signal inhibitor],–
Cc1ccc2c(c1)C(N1CCCC1=O)CC(c1ccco1)N2 (stereo unspecified),inactive,–
CCOC(=O)c1ccc(N2C(=O)c3n[nH]c(C)c3C2c2ccccc2)cc1 (stereo unspecified),inactive,–
Cc1ccc2cc3cc(C(=O)N4CC(C)CC(C)C4)oc3nc2c1 (stereo unspecified),inconclusive: -0.226% [signal inhibitor],–
Cc1ccc(C)c(NC(=O)CCCn2c(C)c3cnn(-c4ccccc4)c(=O)c3c2C)c1,inconclusive: 0.537% [signal inhibitor],–
CCc1ccc(NC(=O)CSc2nc(C)c(C(=O)Nc3ccc(Cl)cc3)c(-c3ccc(OC)cc3)c2C#N)cc1,inactive,–
Cc1ccccc1C(=O)Nc1sc2c(c1C(=O)O)CCC(C(C)(C)C)C2 (stereo unspecified),inconclusive: 9% [signal inhibitor],–
O=C(CSc1nc2c([nH]c3ccccc32)c(=O)n1-c1ccccc1)N1CCCc2ccccc21,inactive,–
COc1ccc(C(CNC(=O)COc2ccccc2C#N)N2CCOCC2)cc1 (stereo unspecified),inactive,–
O=C(NC1CCN(Cc2ccccc2)CC1)C1CCCN(S(=O)(=O)c2cccc3nonc23)C1 (stereo unspecified),inactive,–
Cc1ccc(S(=O)(=O)NCc2cn3c(C)csc3n2)cc1,inactive,–
Cc1cccc(OCc2nc(C#N)c(NCc3ccc4c(c3)OCO4)o2)c1,inconclusive: 12.1% [signal inhibitor],–
